Data published in the supplement of paper PMC9151546.
Most values come without repeats; read them as rough.

Experiments:
CHO-K1 [1] = assay: hypodiploid nuclei frequency (% of nucleated events); higher = more hypodiploid events (aneugenic)
Experimental: (§1)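 Flow-cytometric in vitro micronucleus assay (Litron MicroFlow) in CHO-K1 cells in 96-well plates, 19 concentrations (4.5-200 µM, n=1 per concentration). Without S9, cells were exposed for 24 h and sampled at 48 h. With Aroclor 1254-induced rat liver S9, cells were exposed for 3-4 h and sampled at 27-28 h. Read-outs are %MN and %hypodiploid nuclei relative to nucleated events, and relative survival as the nuclei-to-bead ratio versus the 1% DMSO vehicle control (x100).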

CHO-K1 [2] = assay: relative survival (nuclei to bead ratio vs DMSO control) (% of vehicle control); higher = more surviving cells
Experimental: as §1

CHO-K1 [3] = assay: micronucleus frequency (% of nucleated events); higher = more micronuclei (genotoxic)
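For hypodiploid nuclei frequency (% of nucleated events) in this document: hypodiploid nuclei gated on a flow cytometer with 488 nm excitation after SYTOX Green staining, cultures at 37 °C, positive controls vinblastine without S9 and cyclophosphamide with S9.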
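For micronucleus frequency (% of nucleated events) in this document: cells lysed with nuclei stained by SYTOX Green, then micronucleus-gated events counted against nucleated events by flow cytometry with 488 nm excitation.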
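For relative survival (nuclei to bead ratio vs DMSO control) in this document: Lysed-cell nuclei stained with SYTOX Green and counted against counting beads by flow cytometry at 488 nm excitation, with vinblastine (no S9) and cyclophosphamide (plus S9) as positive controls.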

COCCOCCO [Diethylene glycol monomethyl ether]
Details | hypodiploid nuclei frequency, CHO-K1 [1] [%] | micronucleus frequency, CHO-K1 [3] [%] | relative survival, CHO-K1 [2]
concentration: 4.5 (µM), S9 metabolic activation: with S9, exposure time: 3-4 hours | 0.22 | 1.52 | 96.7
concentration: 4.5 (µM), S9 metabolic activation: without S9, exposure time: 24 hours | 1 | 2.12 | 99.3
concentration: 5.63 (µM), S9 metabolic activation: with S9, exposure time: 3-4 hours | 0.2 | 1.12 | 101
concentration: 5.63 (µM), S9 metabolic activation: without S9, exposure time: 24 hours | 0.42 | 2.02 | 109
concentration: 7.04 (µM), S9 metabolic activation: with S9, exposure time: 3-4 hours | 0.22 | 1.38 | 82.8
concentration: 7.04 (µM), S9 metabolic activation: without S9, exposure time: 24 hours | 0.86 | 2.26 | 136
concentration: 8.8 (µM), S9 metabolic activation: with S9, exposure time: 3-4 hours | 0.14 | 1.32 | 99.9
concentration: 8.8 (µM), S9 metabolic activation: without S9, exposure time: 24 hours | 0.6 | 2.4 | 106
concentration: 11 (µM), S9 metabolic activation: with S9, exposure time: 3-4 hours | 0.3 | 1.06 | 113
concentration: 11 (µM), S9 metabolic activation: without S9, exposure time: 24 hours | 0.58 | 2.26 | 126
concentration: 13.7 (µM), S9 metabolic activation: with S9, exposure time: 3-4 hours | 0.26 | 1.24 | 92.3
concentration: 13.7 (µM), S9 metabolic activation: without S9, exposure time: 24 hours | 0.78 | 2.06 | 111
concentration: 17.2 (µM), S9 metabolic activation: with S9, exposure time: 3-4 hours | 0.28 | 1.02 | 117
concentration: 17.2 (µM), S9 metabolic activation: without S9, exposure time: 24 hours | 0.54 | 1.86 | 118
concentration: 21.5 (µM), S9 metabolic activation: with S9, exposure time: 3-4 hours | 0.26 | 1.06 | 115
concentration: 21.5 (µM), S9 metabolic activation: without S9, exposure time: 24 hours | 0.7 | 2.64 | 104
concentration: 26.8 (µM), S9 metabolic activation: with S9, exposure time: 3-4 hours | 0.32 | 1.9 | 73.7
concentration: 26.8 (µM), S9 metabolic activation: without S9, exposure time: 24 hours | 1 | 1.7 | 93.1
concentration: 33.6 (µM), S9 metabolic activation: with S9, exposure time: 3-4 hours | 0.32 | 1.78 | 72
concentration: 33.6 (µM), S9 metabolic activation: without S9, exposure time: 24 hours | 0.84 | 1.98 | 106
concentration: 41.9 (µM), S9 metabolic activation: with S9, exposure time: 3-4 hours | 0.16 | 1.3 | 69
concentration: 41.9 (µM), S9 metabolic activation: without S9, exposure time: 24 hours | 0.76 | 1.46 | 100
concentration: 52.4 (µM), S9 metabolic activation: with S9, exposure time: 3-4 hours | 0.36 | 1.24 | 73
concentration: 52.4 (µM), S9 metabolic activation: without S9, exposure time: 24 hours | 0.66 | 1.74 | 94.7
concentration: 65.5 (µM), S9 metabolic activation: with S9, exposure time: 3-4 hours | 0.32 | 1.2 | 72.9
concentration: 65.5 (µM), S9 metabolic activation: without S9, exposure time: 24 hours | 0.98 | 1.52 | 96.3
concentration: 81.9 (µM), S9 metabolic activation: with S9, exposure time: 3-4 hours | 0.22 | 1.28 | 74.3
concentration: 81.9 (µM), S9 metabolic activation: without S9, exposure time: 24 hours | 1.06 | 2.1 | 116
concentration: 102 (µM), S9 metabolic activation: with S9, exposure time: 3-4 hours | 0.26 | 1.4 | 84.3
concentration: 102 (µM), S9 metabolic activation: without S9, exposure time: 24 hours | 0.74 | 1.52 | 109
concentration: 128 (µM), S9 metabolic activation: with S9, exposure time: 3-4 hours | 0.1 | 1.16 | 89.7
concentration: 128 (µM), S9 metabolic activation: without S9, exposure time: 24 hours | 1.28 | 2.54 | 99.7
concentration: 160 (µM), S9 metabolic activation: with S9, exposure time: 3-4 hours | 0.22 | 1.24 | 88.1
concentration: 160 (µM), S9 metabolic activation: without S9, exposure time: 24 hours | 1.14 | 2.28 | 116
concentration: 200 (µM), S9 metabolic activation: with S9, exposure time: 3-4 hours | 0.18 | 1.26 | 89.1
concentration: 200 (µM), S9 metabolic activation: without S9, exposure time: 24 hours | 1.26 | 2.46 | 87.6
